Results reported in publication PMC4336329 (PLoS ONE, 2015).
Hit rate of the full screen: of about 310,000 compounds, about 14,000 (4.5%) showed an effect of 50% or more. Effects have a minus sign here. The list shows a part of the results.

molecular target: human ether-à-go-go-related gene (hERG) potassium channel (human, UniProt Q12809); test: primary screen, population patch clamp on CHO cells stably expressing hERG
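Further: peak tail current of the secondary pulse compared with the same well before compound.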

Sequence of human ether-à-go-go-related gene (hERG) potassium channel (Q12809 whole entry, looked up): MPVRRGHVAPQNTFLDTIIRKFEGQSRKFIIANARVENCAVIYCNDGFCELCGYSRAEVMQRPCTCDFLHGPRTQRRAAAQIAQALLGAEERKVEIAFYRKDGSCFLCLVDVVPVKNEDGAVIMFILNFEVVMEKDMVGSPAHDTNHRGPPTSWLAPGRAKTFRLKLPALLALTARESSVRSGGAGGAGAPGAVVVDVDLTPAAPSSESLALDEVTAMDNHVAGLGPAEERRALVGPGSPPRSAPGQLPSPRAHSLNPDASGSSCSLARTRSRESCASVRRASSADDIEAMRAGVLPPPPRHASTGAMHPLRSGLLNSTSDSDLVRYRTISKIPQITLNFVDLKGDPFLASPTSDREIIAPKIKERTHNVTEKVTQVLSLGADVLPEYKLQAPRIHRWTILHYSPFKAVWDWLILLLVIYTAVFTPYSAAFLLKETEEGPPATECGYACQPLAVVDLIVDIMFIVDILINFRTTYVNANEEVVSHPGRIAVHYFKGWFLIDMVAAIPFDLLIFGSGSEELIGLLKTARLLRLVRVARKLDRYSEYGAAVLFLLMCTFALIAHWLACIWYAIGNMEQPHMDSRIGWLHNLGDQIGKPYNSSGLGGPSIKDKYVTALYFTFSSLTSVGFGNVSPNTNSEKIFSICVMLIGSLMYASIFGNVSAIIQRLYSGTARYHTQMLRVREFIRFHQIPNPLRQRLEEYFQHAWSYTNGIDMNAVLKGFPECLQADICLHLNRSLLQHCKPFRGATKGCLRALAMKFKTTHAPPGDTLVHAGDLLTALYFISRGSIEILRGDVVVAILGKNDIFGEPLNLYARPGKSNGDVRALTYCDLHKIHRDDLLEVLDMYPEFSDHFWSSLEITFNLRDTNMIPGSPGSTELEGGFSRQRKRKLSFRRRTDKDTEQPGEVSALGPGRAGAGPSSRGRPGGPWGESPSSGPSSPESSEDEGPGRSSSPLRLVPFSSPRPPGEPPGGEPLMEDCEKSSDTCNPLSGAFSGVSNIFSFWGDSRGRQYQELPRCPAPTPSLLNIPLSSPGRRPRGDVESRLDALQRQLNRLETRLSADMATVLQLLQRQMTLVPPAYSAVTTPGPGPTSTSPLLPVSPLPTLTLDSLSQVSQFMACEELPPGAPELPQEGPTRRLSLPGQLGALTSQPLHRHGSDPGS

Going from `O=C(Nc1ccc(Cl)cn1)c1ccc2c(Cl)c3c(nc2c1)CCC3` to `CCOc1ccc(OCCC(=O)OCC(=O)Nc2ccc(Cl)cn2)cc1`, the “hERG current change (%, negative = inhibition) at 10uM” value falls from 14.8% to 7.09%.

First: COc1cc(S(=O)(=O)NC2CCCC2)ccc1F
Second: COc1ccc(NS(=O)(=O)c2ccc3c(c2)oc(=O)n3C)cc1Cl
The “hERG current change (%, negative = inhibition) at 10uM” value of the first is lower: 1.19% for the first, 10.4% for the second.

First: COc1ccc(-c2nc3ccccc3c(=O)o2)cc1
Second: COc1ccc(-c2ocnc2C(=O)N2CCN(C(c3ccccc3)c3ccccc3)CC2)cc1
The “hERG current change (%, negative = inhibition) at 10uM” value of the first is higher: 26.1% for the first, 6.49% for the second.

First: Cc1ccc(Nc2nc3c(s2)CCC3)c(C)c1
Second: Cc1ccc(C)c(OCc2cc(C(=O)N3C[C@H]4C[C@@H](C3)c3cccc(=O)n3C4)no2)c1
The “hERG current change (%, negative = inhibition) at 10uM” value of the first is higher: -3.3% for the first, -38.3% for the second.

Going from `O=c1cc(C(F)(F)F)nc(-n2[nH]c3c(c2=O)CCCC3)[nH]1` to `O=C(Cn1ccc(C(F)(F)F)n1)N/N=C/c1ccc(N2CCOCC2)cc1`, the “hERG current change (%, negative = inhibition) at 10uM” value rises from 5.08% to 7.68%.

First: O=C(O)C1C2C=CC(C2)C1C(=O)Nc1ccc2c(c1)OCCO2 (centres unmarked)
Second: OC(CNCc1ccc2c(c1)OCO2)COc1ccccc1 (centres unmarked)
The “hERG current change (%, negative = inhibition) at 10uM” value of the first is higher: 14.3% for the first, -5.74% for the second.

First: O=C(CSc1ncn[nH]1)N/N=C/c1ccc(C(F)(F)F)cc1
Second: COc1ccc(N(CC(=O)N/N=C/c2ccc(F)cc2)S(=O)(=O)c2ccccc2)cc1
The “hERG current change (%, negative = inhibition) at 10uM” value of the first is higher: -1.39% for the first, -3.78% for the second.

Compared with `Cc1cc(=O)c2cc(Cl)ccc2[nH]1`, `COc1ccc(NC(=O)c2cc(C)no2)cc1Cl` is higher in “hERG current change (%, negative = inhibition) at 10uM” value: 2.55% for the first, 19.3% for the second.

Compared with `C=CCOc1ccc(C(=O)c2ccccc2)c(OCC(=O)NC2(C#N)CCCC2)c1`, `CC(C(=O)N(C1CC1)C1(C(=O)Nc2ccccc2)CCCC1)N1C(=O)c2ccccc2C1=O` (centres unmarked) is lower in “hERG current change (%, negative = inhibition) at 10uM” value: 8.08% for the first, -0.31% for the second.

Going from `O=C(CSc1nnnn1Cc1ccccc1)NCC(=O)c1ccccc1` to `O=C(Cn1[nH]c(=O)c2ccccc2c1=O)OCC(=O)c1ccccc1`, the “hERG current change (%, negative = inhibition) at 10uM” value rises from -2.09% to 11.3%.

Compared with `Cc1cc(Nc2nc3ccccc3[nH]c2=O)n(-c2ccccc2)n1`, `Cc1nn(-c2ccccc2)c(Cl)c1/C=N/NC(=O)c1ccco1` is lower in “hERG current change (%, negative = inhibition) at 10uM” value: -5.63% for the first, -17.7% for the second.

Going from `O=C(OCc1nnc(-c2ccccc2)o1)c1ccco1` to `Cc1ccc(S(=O)(=O)NCC(=O)OCc2csc(-c3ccccc3)n2)cc1`, the “hERG current change (%, negative = inhibition) at 10uM” value rises from -8.22% to 5.28%.

Compared with `Cc1cccc(NC(=O)CNC(=O)Cc2ccc(S(=O)(=O)N3CCOCC3)s2)c1C`, `COc1cccc(NC(=O)CNS(=O)(=O)c2ccc3nc(C)sc3c2)c1` is lower in “hERG current change (%, negative = inhibition) at 10uM” value: 5.91% for the first, 1.57% for the second.

First: O=C(Cn1cc2c(n1)CCCCC2)NCCCN1CCOCC1
Second: COc1ccc(N2CCN(CC(=O)Nc3nc(C)cs3)CC2)cc1
The “hERG current change (%, negative = inhibition) at 10uM” value of the first is lower: 7.34% for the first, 13.4% for the second.

First: Cn1c(SCc2ccccc2[N+](=O)[O-])nnc1-c1cccnc1
Second: Cc1ccc(/C=N/NC(=O)c2nnn(-c3nonc3N)c2CSc2ccccc2)o1
The “hERG current change (%, negative = inhibition) at 10uM” value of the first is higher: 12.1% for the first, 11.7% for the second.

First: COc1cc(Cn2ccnc2)c(OC)cc1Cn1ccnc1
Second: CCOc1ccc(Nc2cc3n(c(=O)n2)CCc2cc(OC)c(OC)cc2-3)cc1
The “hERG current change (%, negative = inhibition) at 10uM” value of the first is higher: -13.4% for the first, -16.1% for the second.

Compared with `COc1cc(OC)cc(-c2nnc(NC(=O)CCS(=O)(=O)c3ccc(C)cc3)o2)c1`, `CC1Sc2ccc(S(=O)(=O)CCC(=O)Nc3ccccc3Cl)cc2NC1=O` (centres unmarked) is higher in “hERG current change (%, negative = inhibition) at 10uM” value: -3.68% for the first, 4.08% for the second.

First: C[C@@H](C(=O)N1CCN(C(=O)OC(C)(C)C)CC1)n1cc(CCCN=C(NC(=O)OC(C)(C)C)NC(=O)OC(C)(C)C)nn1
Second: CC(C)(C)OC(=O)CN1C(=O)S/C(=C\c2ccc(-c3cccc(C(=O)O)c3)o2)C1=O
The “hERG current change (%, negative = inhibition) at 10uM” value of the first is lower: 8.32% for the first, 17.5% for the second.

Going from `Cc1ccc(OCCN(C)C)c([N+](=O)[O-])c1.O=C(O)C(=O)O` to `CC1(C)CC(=O)C/C(=N/NC(=O)COc2ccc(Cl)cc2Cl)C1`, the “hERG current change (%, negative = inhibition) at 10uM” value rises from -36.1% to -14.3%.

Going from `O=C(OC1Cn2c(=O)ccc(=O)n2C1)c1ccc([N+](=O)[O-])cc1` to `C/C(=N\Nc1ccc(C(=O)O)cc1)c1ccc(Cl)s1`, the “hERG current change (%, negative = inhibition) at 10uM” value rises from -12.8% to 21.8%.

First: COc1ccc(C(=O)c2oc3nc(C)cc(C)c3c2N)cc1
Second: COCC(C)n1c(C)cc(C(=O)CSc2nc3ccccc3c(=O)[nH]2)c1C (centres unmarked)
The “hERG current change (%, negative = inhibition) at 10uM” value of the first is lower: -4.43% for the first, 3.95% for the second.

First: CCOC(=O)C1CCN(S(=O)(=O)c2cnc[nH]2)CC1
Second: O=C(C1CCCN(S(=O)(=O)c2ccc(Br)cc2)C1)N1CCN(Cc2ccccc2)CC1 (centres unmarked)
The “hERG current change (%, negative = inhibition) at 10uM” value of the first is higher: 14.3% for the first, -55.1% for the second.

Going from `Cc1ccc(-n2c(O)c(/C=C/C=Nc3ccccc3)c(=O)[nH]c2=O)cc1` to `O=C(O)Cc1cn(Cc2cccc(Cl)c2)c2ccccc12`, the “hERG current change (%, negative = inhibition) at 10uM” value rises from 9.3% to 12.6%.

First: CCc1ccccc1N1CSC2=C(C#N)C(c3ccccc3F)CC(=O)N2C1 (centres unmarked)
Second: c1ccc2c(c1)c1cccc3ccc4cccc2c4c31
The “hERG current change (%, negative = inhibition) at 10uM” value of the first is lower: -5.52% for the first, 16.4% for the second.

Going from `CCC(CC)C(=O)NCc1ccccc1Cl` to `CSCc1ccc(C(=O)NCc2ccccc2)cc1`, the “hERG current change (%, negative = inhibition) at 10uM” value falls from 12.5% to -8.13%.

Compared with `CCCCn1c(O)c(C(CC)=NCc2cccnc2)c(=O)[nH]c1=O`, `COCCCn1c(SCC(=O)Nc2oc(C)c3c(C)n[nH]c(=O)c23)nc2ccccc2c1=O` is lower in “hERG current change (%, negative = inhibition) at 10uM” value: -33.6% for the first, -46.5% for the second.

First: CCOCCCNC(=O)C1(O)c2cc(Br)ccc2NC(=O)N1c1ccc(CC)cc1 (centres unmarked)
Second: Cc1ccc(CS(=O)(=O)CCC(=O)NCc2ccc(F)cc2)cc1
The “hERG current change (%, negative = inhibition) at 10uM” value of the first is higher: 28.4% for the first, 7.26% for the second.

Going from `COCC(=O)N1CCC(Oc2ccc(C(=O)N3C[C@@H](C)O[C@@H](C)C3)cc2)CC1` to `O=C(COc1ccccc1)NCCc1cnc[nH]1`, the “hERG current change (%, negative = inhibition) at 10uM” value rises from -25.8% to 13.5%.
